Experimental data as given in PMC4336329 (PLoS ONE, 2015).
The whole screen tested about 310,000 compounds, of which about 14,000 (4.5%) showed an effect of 50% or more. The effect is printed as a negative number. The list shows a part of the results.

Molecular target: human ether-à-go-go-related gene (hERG) potassium channel (human, UniProt Q12809)
Experiment: primary screen, population patch clamp on CHO cells stably expressing hERG
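Also: peak tail current of the secondary pulse compared with the same well before compound.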

human ether-à-go-go-related gene (hERG) potassium channel, sequence (Q12809 whole entry, looked up): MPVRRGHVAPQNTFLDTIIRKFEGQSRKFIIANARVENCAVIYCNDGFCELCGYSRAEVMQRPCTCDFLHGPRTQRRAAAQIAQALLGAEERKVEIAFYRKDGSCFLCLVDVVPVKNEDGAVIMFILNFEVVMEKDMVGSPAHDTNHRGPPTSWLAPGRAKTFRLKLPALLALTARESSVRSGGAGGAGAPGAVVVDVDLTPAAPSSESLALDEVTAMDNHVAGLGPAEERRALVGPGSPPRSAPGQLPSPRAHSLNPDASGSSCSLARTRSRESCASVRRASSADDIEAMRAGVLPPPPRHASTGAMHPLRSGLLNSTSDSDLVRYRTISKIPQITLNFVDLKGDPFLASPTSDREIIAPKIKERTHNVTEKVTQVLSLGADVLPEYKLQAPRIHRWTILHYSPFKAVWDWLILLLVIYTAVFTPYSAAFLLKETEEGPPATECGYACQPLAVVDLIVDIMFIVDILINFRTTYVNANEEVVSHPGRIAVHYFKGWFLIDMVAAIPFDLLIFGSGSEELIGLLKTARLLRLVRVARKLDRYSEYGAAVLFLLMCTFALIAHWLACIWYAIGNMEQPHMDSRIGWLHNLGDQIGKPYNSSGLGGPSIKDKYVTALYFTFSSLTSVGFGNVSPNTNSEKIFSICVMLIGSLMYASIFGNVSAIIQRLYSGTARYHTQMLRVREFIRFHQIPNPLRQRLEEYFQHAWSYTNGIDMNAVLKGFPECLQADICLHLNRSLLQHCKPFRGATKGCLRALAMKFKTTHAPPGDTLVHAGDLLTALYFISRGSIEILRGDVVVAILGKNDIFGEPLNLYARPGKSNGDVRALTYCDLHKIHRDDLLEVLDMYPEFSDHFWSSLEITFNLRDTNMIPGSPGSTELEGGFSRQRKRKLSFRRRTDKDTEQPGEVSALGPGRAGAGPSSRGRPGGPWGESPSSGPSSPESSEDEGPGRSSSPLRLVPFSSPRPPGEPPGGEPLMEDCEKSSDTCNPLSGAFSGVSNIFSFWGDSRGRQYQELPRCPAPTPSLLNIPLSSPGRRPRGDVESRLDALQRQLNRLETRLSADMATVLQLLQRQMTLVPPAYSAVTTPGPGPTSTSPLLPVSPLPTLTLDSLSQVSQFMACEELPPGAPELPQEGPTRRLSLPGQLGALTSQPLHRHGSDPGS

SMILES	hERG current change (%, negative = inhibition) at 10uM [%]
O=C(O)CSc1nnc(Nc2ccccc2)n1-c1ccccc1	18.6
O=C(O)c1ccccc1/C=N/n1c(C2CCCCC2)n[nH]c1=S	16.8
CCN1C(=O)[C@@H]2[C@@H](c3ccc(SC4CCCCC4)c(OC)c3)N3CCC[C@@]3(C(=O)OC)[C@@H]2C1=O.O=C(O)C(F)(F)F	-56
CCCc1nc(N)c(C#N)c(-c2ccco2)c1CC	14.3
O=C(N/N=C/c1c[nH]c2ccc(Br)cc12)c1ccn(Cc2ccc(Cl)cc2Cl)n1	6.95
COCCn1cnc2c1c(=O)n(CC(=O)NN)c(=O)n2Cc1ccccc1	8.95
O=C(Nc1ccccc1Cl)NC1(C(=O)N2CCCC2)CCCCC1	-2.83
O=C(COC(=O)c1ccc2c(=O)n3c(nc2c1)CCC3)Nc1ccc(OC(F)F)cc1	-9.04
COc1cc(C)ccc1OCCCOc1ccccc1Cl	5.53
Cc1n[nH]c(C)c1CN(C)C(=O)c1cc(COc2ccc(F)c(F)c2)on1	-20.8
COc1ccc(C(=O)C2CCCN(C(=O)c3cc(C)nc(C)n3)C2)cc1OC (stereo not shown)	21.9
CC(C)Cc1nc(N2CCNCC2)c(C#N)c2c1CCC2	3.25
CCCCC(=O)NNC(=O)N1c2ccccc2Sc2ccccc21	-1.83
Cc1cc(NC(=O)CSc2nnnn2-c2ccc(C)c(Cl)c2)no1	23.3
CCOc1ccc(CCNC(=O)c2ccc(CS(=O)Cc3cccc(Cl)c3)o2)cc1 (stereo not shown)	-76
COc1ccc2c(c1OC)CN1CCc3cc4c(cc3[C@H]1C2)OCO4	-1.81
CCOC(=O)C1=C(COC(=O)[C@H](C)NS(=O)(=O)c2ccc(NC(C)=O)cc2)NC(=O)NC1C (stereo partly shown)	21.2
CC(C)Oc1ccc(CCC(=O)N/N=C/c2ccc3c(c2)OCO3)cc1	21
COc1ccccc1CC(=O)NC1CCN(Cc2ccccc2)CC1	1.52
COc1ccc(NC(=O)NC(C)c2ccc3c(c2)OCO3)cc1OC (stereo not shown)	18

SMILES	hERG current change (%, negative = inhibition) at 10uM [%]
COc1cccc(C(=O)Nc2ccc(NC(=O)C(C)C)nc2)c1	-8.07
Cc1ccc(CNS(=O)(=O)c2c(C)[nH]c(C)c2C(=O)N2CCCC2)cc1	14.4
CN1CCN(c2ccc([N+](=O)[O-])cc2NC(=O)c2cccs2)CC1	-55.2
Cc1cc(N/C=C/C(=O)c2ccccc2)ccc1Br	7.63
CN(C)/C=N/c1sc2c(c1C(N)=O)CCCC2	18
COC(=O)c1[nH]c2cc(OC)ccc2c1NC(=O)CN1CCC(C(N)=O)(N2CCCCC2)CC1	-33.4
Cc1cccc(NC(=O)C2(c3cccs3)CCOCC2)n1	22.8
CCOc1ccc(C(=O)Nc2nnc(SCC(=O)NCC3CCCO3)s2)cc1 (stereo not shown)	12.6
COc1ccc(-n2c(SCC(=O)Nc3ccccc3)nc(O)cc2=O)cc1	25.6
Cc1ccc(/C=N/NC(=O)CCCOc2ccc(Cl)cc2Cl)cc1	-1.05
C[C@H](NC(=O)c1[nH]cnc1C(=O)Nc1ccc(Cl)cc1)c1ccccc1	4.04
C=CCN1CN(CCc2ccccc2)CNC1=S	19.5
CCOc1ccc2c(c1)n(CO)c(=S)n2CO	7.31
Nc1ccc(-c2nc3ccc(C(=O)O)cc3s2)cc1	29.8
CC1CCN(C(=O)CSc2nc3c(c(=O)n2C)SC(C)C3)CC1 (stereo not shown)	1.59
COc1ccc(-c2cc3c(=O)n(CC(=O)NCc4ccccc4OC)ncn3n2)cc1	-14.1
Cc1cccc(OCc2nnc(SCC(=O)NC3CCCC3)n2C)c1	-1.09
O=C(COc1ccc(Cl)cc1)NCCCNC(=O)c1cnccn1	-10.2
CN(C(=O)C1CCOC1)c1nnc(C2CCOC2)s1 (stereo not shown)	10.1
Cc1cc(C)c2c(=O)[nH]n(C3CCOC(C)(C)C3)c2n1 (stereo not shown)	-3.86

SMILES	hERG current change (%, negative = inhibition) at 10uM [%]
CC1CC(C)CN(S(=O)(=O)c2ccc(Cl)cc2)C1 (stereo not shown)	-0.276
O=C(COC(=O)c1ccc(Cl)nc1)NCc1ccco1	22.6
CC(C)(C)c1ccc(OCCC(=O)NNC(=O)c2ccccc2)cc1	-9.12
CCN(CC)C(=O)COc1ccc(/C=N/NC(=O)c2cc(-c3ccccc3OC)nc3ccccc23)cc1OC	-19.7
O=C(C1CCCO1)N1CCN(C(c2ccccc2)c2ccccc2)CC1 (stereo not shown)	0.514
Cc1ccc(C(=O)NCC2(c3ccccc3)CCCC2)cc1	-12
O=C(Nc1ccccc1C(=O)NC1CCCCC1)c1ccco1	1.01
CCOc1ccc(C2(C)CC(=O)N(C)C2=O)cc1 (stereo not shown)	0.927
Cc1cc(C(F)(F)F)n(-c2ccc(N)cc2)n1	2.86
CCn1c(N2CCN(C(=O)Nc3ccc(F)cc3)CC2)nc2ccccc21	-68.2
COc1ccc(OC)c(NC(=O)c2cccc(NC(=O)c3ccccc3)c2)c1	-16.8
CC(O)[C@H]1CNC(=O)C(=O)N1CCc1cccc(F)c1 (stereo partly shown)	21
c1cncc(CNc2ncnc3sc4c(c23)CCCC4)c1	-78
Cc1c(C(=O)N2CCOCC2)sc2nc(-c3ccccc3)cn12	-11.2
CC(C(=O)NCc1cccnc1)N1C(=O)c2ccccc2C1=O (stereo not shown)	17.4
O=c1oc(-c2ccccc2NS(=O)(=O)c2ccc(F)cc2)nc2ccccc12	17.1
CN(C(=O)c1cccc(S(=O)(=O)N2CCOCC2)c1)c1c(N)n(Cc2ccccc2)c(=O)[nH]c1=O	15.2
CCn1nnnc1-c1ccc(OC)c(S(=O)(=O)Nc2ccc(C(=O)OC)cc2)c1	6.44
